Screen size: about 310,000 compounds; about 14,000 (4.5%) showed an effect of 50% or more. Effects have a minus sign here. Some of the results follow.
These compounds were tested against human ether-à-go-go-related gene (hERG) potassium channel (human, UniProt Q12809) (assay: primary screen, population patch clamp on CHO cells stably expressing hERG).
Chain of human ether-à-go-go-related gene (hERG) potassium channel (Q12809 whole entry, looked up): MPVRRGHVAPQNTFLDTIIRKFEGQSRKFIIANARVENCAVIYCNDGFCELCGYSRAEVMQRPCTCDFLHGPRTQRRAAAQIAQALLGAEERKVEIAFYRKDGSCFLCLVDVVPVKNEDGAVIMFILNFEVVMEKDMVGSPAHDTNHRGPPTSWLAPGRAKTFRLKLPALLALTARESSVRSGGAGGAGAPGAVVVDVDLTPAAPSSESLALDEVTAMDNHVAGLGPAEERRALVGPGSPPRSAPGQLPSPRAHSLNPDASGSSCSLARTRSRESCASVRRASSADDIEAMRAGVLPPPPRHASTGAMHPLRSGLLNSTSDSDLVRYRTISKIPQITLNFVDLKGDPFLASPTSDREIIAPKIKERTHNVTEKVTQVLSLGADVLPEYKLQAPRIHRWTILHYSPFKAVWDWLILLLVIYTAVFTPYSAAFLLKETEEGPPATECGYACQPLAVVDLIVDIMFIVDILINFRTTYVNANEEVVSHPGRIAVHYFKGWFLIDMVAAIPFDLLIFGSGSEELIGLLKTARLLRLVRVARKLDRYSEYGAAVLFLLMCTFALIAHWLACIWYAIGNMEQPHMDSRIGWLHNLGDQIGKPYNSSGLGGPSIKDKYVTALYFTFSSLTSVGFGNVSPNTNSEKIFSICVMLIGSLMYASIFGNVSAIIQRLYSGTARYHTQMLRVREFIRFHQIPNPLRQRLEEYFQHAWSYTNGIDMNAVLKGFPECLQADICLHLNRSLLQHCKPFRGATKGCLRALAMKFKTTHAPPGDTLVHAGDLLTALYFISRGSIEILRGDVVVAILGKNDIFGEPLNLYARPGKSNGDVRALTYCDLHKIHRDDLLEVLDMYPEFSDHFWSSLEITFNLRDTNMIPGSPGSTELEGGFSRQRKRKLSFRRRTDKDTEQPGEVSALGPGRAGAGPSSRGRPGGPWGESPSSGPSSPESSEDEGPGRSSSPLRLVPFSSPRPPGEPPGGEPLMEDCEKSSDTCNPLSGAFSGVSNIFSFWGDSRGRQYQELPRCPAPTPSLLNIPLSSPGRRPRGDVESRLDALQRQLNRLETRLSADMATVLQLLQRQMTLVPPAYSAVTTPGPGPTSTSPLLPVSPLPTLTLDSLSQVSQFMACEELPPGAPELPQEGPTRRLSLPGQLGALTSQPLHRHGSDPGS
In the case of `CCc1ccc(NC(=O)CSc2nnc(C)c(=O)n2N)cc1`, the “hERG current change (%, negative = inhibition) at 10uM” value is reported as 11.6%.
With `Cc1cccc(-n2c(C)nc3ccsc3c2=O)c1` the “hERG current change (%, negative = inhibition) at 10uM” value was 19.7%.
In the case of `Cc1sc2nc(CSc3nnnn3-c3ccc(Cl)cc3)[nH]c(=O)c2c1C`, the “hERG current change (%, negative = inhibition) at 10uM” value is reported as -6.71%.
With `CN1CCN(c2c[nH]c(=O)[nH]c2=O)CC1` the “hERG current change (%, negative = inhibition) at 10uM” value was -6.88%.
In the case of `CC1=C(C)CC(C(=O)NNC(=O)c2cccc(Cl)c2)C(C(=O)O)C1` (stereo not shown), the “hERG current change (%, negative = inhibition) at 10uM” value is reported as 12.3%.
For `Cc1ccc(NC(=O)CSc2nnc(CNC(=O)c3ccco3)o2)cc1Cl`, the “hERG current change (%, negative = inhibition) at 10uM” value was -0.744%.
For `Cc1nc2oc3c(NCc4ccccn4)ncnc3c2c2c1COC(C)(C)C2`, the “hERG current change (%, negative = inhibition) at 10uM” value was -0.387%.
`COc1ccc(C(=O)C2CCCN(Cc3ccc(C#CCCO)cc3)C2)cc1F` (stereo not shown) was tested, and the “hERG current change (%, negative = inhibition) at 10uM” value was -45.3%.
For `Cc1ccc(CNS(=O)(=O)c2ccc(-n3cnnn3)c(C)c2)cc1`, the “hERG current change (%, negative = inhibition) at 10uM” value was -2.6%.
`CCC(C(=O)NC1CCCC1)N(C(=O)c1snc(C(N)=O)c1N)c1ccc(OC)cc1` (stereo not shown) was tested, and the “hERG current change (%, negative = inhibition) at 10uM” value was 22.4%.
For `O=C(Cn1nnc2ccccc21)NNC(=S)NC1CCCCC1`, the “hERG current change (%, negative = inhibition) at 10uM” value was 20.3%.
In the case of `Cc1cc(C)c2sc(N(CCCN(C)C)C(=O)c3ccc(S(=O)(=O)N4CCCc5ccccc54)cc3)nc2c1.Cl`, the “hERG current change (%, negative = inhibition) at 10uM” value is reported as 0.702%.
With `COc1cccc(CC(=O)Nc2nc3ccccc3[nH]2)c1` the “hERG current change (%, negative = inhibition) at 10uM” value was 10.7%.
For `NC(=O)CCNC(=O)c1ccc(Cl)cc1`, the “hERG current change (%, negative = inhibition) at 10uM” value was 11.1%.
For `O=C(O)C1C2C=CC(C2)C1C(=O)Nc1cccc(F)c1` (stereo not shown), the “hERG current change (%, negative = inhibition) at 10uM” value was 7.94%.
In the case of `O=C(Nc1c2c(nc3ccccc13)CCCC2)c1ccccc1F`, the “hERG current change (%, negative = inhibition) at 10uM” value is reported as -3%.
For `O=C(C[n+]1ccc2c(c1)nnn2-c1ccccc1)c1ccc(Cl)cc1.[Br-]`, the “hERG current change (%, negative = inhibition) at 10uM” value was -69%.
`Cl.Fc1ccc(Nc2ncnc3ccccc23)cc1` was tested, and the “hERG current change (%, negative = inhibition) at 10uM” value was 10.7%.
`CC(C)(C)OC(=O)N1CC(O)CC1C(=O)OCC(=O)c1ccc(-c2ccccc2)cc1` (stereo not shown) was tested, and the “hERG current change (%, negative = inhibition) at 10uM” value was 32%.
With `NC(=O)CSc1nnc(NC(=O)c2ccc(S(=O)(=O)N3CCCCC3)cc2)s1` the “hERG current change (%, negative = inhibition) at 10uM” value was -21%.
`CCCCn1c(=O)[nH]c(=O)c2c1nc(-c1ccc(OC)c(Br)c1)n2CC(C)C` was tested, and the “hERG current change (%, negative = inhibition) at 10uM” value was 9.25%.
In the case of `CCN1C(=O)C(O)(CC(=O)c2ccc(-n3cccc3)cc2)c2ccccc21` (stereo not shown), the “hERG current change (%, negative = inhibition) at 10uM” value is reported as -13.1%.
`COc1ccc2nc(SCC(=O)c3ccco3)[nH]c2c1` was tested, and the “hERG current change (%, negative = inhibition) at 10uM” value was 7.37%.
With `COC(=O)CC1C(=O)NCCN1C(=S)Nc1ccccc1` (stereo not shown) the “hERG current change (%, negative = inhibition) at 10uM” value was -2.53%.
`CC12CN3CC(C)(CN(C1)C3c1ccc(Cl)cc1Cl)C2=O` (stereo not shown) was tested, and the “hERG current change (%, negative = inhibition) at 10uM” value was -10.5%.
For `CC(=O)N(CCc1ccccc1C)Cc1cc2cc(C)ccc2[nH]c1=O`, the “hERG current change (%, negative = inhibition) at 10uM” value was 25.3%.
`CCCC[C@@H]1CNCCN1CCCc1cc(OC)c(OC)c(OC)c1` was tested, and the “hERG current change (%, negative = inhibition) at 10uM” value was 7.6%.
In the case of `Cc1nn(C(C)C(=O)NCCCN(Cc2ccccc2)C(C)C)c(=O)c2c1sc1ccccc12` (stereo not shown), the “hERG current change (%, negative = inhibition) at 10uM” value is reported as -11.7%.
For `COc1ccc(-c2cc3nc(C)n(N)c(=O)c3s2)cc1`, the “hERG current change (%, negative = inhibition) at 10uM” value was 5.36%.
In the case of `COc1cccc(N2CCN(Cc3ccc(Cl)cc3)CC2)c1`, the “hERG current change (%, negative = inhibition) at 10uM” value is reported as -29.2%.
For `Cc1ccc2nc(-c3cc(N)cc(N)c3)oc2c1`, the “hERG current change (%, negative = inhibition) at 10uM” value was 7.93%.
With `Clc1ccccc1Cn1nnc2ccccc21` the “hERG current change (%, negative = inhibition) at 10uM” value was 1.76%.
For `CCSc1nc2c(c(=O)[nH]1)C(c1ccccn1)C1=C(CC(C)(C)CC1=O)N2` (stereo not shown), the “hERG current change (%, negative = inhibition) at 10uM” value was -0.449%.
With `CC(C)CC(=O)NCCNC(=O)c1cc(OCC(F)(F)F)ccc1OCC(F)(F)F` the “hERG current change (%, negative = inhibition) at 10uM” value was 1.39%.
With `N#CCCN(C(=O)COC(=O)c1ccc(S(=O)(=O)N2CCCCCC2)cc1)c1ccccc1` the “hERG current change (%, negative = inhibition) at 10uM” value was -2.66%.
In the case of `COc1cc(CCC(=O)OCc2ccccc2C#N)cc(OC)c1OC`, the “hERG current change (%, negative = inhibition) at 10uM” value is reported as 7.42%.
In the case of `COC(=O)C1=C(c2cccc(OCc3ccccc3)c2)C[C@@H]2CC[C@H]1N2C(=O)NCc1ccc(N(C)C)cc1`, the “hERG current change (%, negative = inhibition) at 10uM” value is reported as 15.6%.
`COc1ccc(C(=O)CSc2nnc(CN3CCCCC3)n2-c2ccc(F)cc2)cc1OC` was tested, and the “hERG current change (%, negative = inhibition) at 10uM” value was 6.33%.
For `Br.CCCn1c(=N)n(CC(=O)c2ccc(Cl)cc2)c2ccccc21`, the “hERG current change (%, negative = inhibition) at 10uM” value was -53%.
With `CSC1=C(C#N)C(c2ccccc2Cl)C(C(=O)c2cccs2)C(O)(C(F)(F)F)N1` (stereo not shown) the “hERG current change (%, negative = inhibition) at 10uM” value was -9.6%.
`COc1ccc2[nH]c(C)c(CCN3CCC(=O)C(C)C3C)c2c1.Cl` (stereo not shown) was tested, and the “hERG current change (%, negative = inhibition) at 10uM” value was -21.5%.
In the case of `COc1ccc(C2C(C(=O)N3CCOCC3)CCC(=O)N2c2cc(OC)c(OC)c(OC)c2)cc1` (stereo not shown), the “hERG current change (%, negative = inhibition) at 10uM” value is reported as 17%.
For `COC(=O)CCc1c(C)c(C(=O)c2cc(OC)c(OC)c(OC)c2)c2ccccn12`, the “hERG current change (%, negative = inhibition) at 10uM” value was -34.2%.
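Further: peak tail current of the secondary pulse compared with the same well before compound.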
